# Measured values as given in article PMC4336329 (PLoS ONE, 2015).
# The whole screen tested about 310,000 compounds, of which about 2,200 (0.71%) showed an effect of 50% or more. Effects have a minus sign here. The list shows a part of the results.
# Biological target: human ether-à-go-go-related gene (hERG) potassium channel (human, UniProt Q12809)
# Test: primary screen, population patch clamp on CHO cells stably expressing hERG
# human ether-à-go-go-related gene (hERG) potassium channel, sequence (Q12809 whole entry, looked up): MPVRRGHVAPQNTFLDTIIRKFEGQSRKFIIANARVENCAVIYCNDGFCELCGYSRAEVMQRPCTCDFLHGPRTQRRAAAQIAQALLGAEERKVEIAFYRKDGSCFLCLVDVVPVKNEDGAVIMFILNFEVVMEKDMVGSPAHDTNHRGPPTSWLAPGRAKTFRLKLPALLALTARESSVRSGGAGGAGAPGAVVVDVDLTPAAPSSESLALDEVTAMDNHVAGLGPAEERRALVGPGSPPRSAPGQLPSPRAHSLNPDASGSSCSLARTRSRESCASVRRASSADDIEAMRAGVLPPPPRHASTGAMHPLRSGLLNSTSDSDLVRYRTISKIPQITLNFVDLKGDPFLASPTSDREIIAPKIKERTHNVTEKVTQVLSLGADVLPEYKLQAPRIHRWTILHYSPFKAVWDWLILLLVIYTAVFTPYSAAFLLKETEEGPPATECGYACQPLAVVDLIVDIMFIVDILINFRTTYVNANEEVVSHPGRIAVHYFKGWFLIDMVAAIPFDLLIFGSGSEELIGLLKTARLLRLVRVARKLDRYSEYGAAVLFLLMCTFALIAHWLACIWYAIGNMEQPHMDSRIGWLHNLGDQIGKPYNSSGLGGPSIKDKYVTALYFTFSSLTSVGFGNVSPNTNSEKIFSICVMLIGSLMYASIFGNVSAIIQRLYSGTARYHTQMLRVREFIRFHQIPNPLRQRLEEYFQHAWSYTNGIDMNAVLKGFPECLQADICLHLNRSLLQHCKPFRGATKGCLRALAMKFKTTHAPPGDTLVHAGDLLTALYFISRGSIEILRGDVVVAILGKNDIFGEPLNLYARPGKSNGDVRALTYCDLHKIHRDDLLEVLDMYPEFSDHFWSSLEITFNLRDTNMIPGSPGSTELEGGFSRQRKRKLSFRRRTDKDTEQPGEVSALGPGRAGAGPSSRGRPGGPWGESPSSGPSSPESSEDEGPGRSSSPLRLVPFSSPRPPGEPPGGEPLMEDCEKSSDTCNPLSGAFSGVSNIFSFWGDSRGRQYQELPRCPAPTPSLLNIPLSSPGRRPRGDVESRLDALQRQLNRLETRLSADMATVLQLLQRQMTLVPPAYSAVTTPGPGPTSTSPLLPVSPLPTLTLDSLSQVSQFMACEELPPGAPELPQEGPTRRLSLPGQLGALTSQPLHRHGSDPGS
row,Structure (SMILES),"hERG current change (%, negative = inhibition) at 1uM"
1,NC(=O)C[n+]1cccc(/C=N/O)c1.[Cl-],8.02%
2,CCCCNC(=O)c1ccc2c(OCC)n(CCCC)nc2c1,6.22%
3,N/C(=N\OC(=O)c1ccco1)c1cccnc1,19.9%
4,Cc1cccc(C(=O)Nc2nnc(-c3ccc(C(C)(C)C)cc3)s2)c1,-1.4%
5,COc1ccc(CNC(=O)COC(=O)Cc2ccc(Cl)cc2Cl)cc1,13.4%
6,Cc1nn(C)cc1S(=O)(=O)N1CCN(c2ccccc2F)CC1,7.67%
7,Cc1cccc(CN2CCC(CNC(=O)CCNC(=O)Cn3ccc4ccccc4c3=O)CC2)c1,5.41%
8,CC(=O)Nc1ccccc1N(C)S(=O)(=O)c1ccc(C)cc1,7.44%
9,O=C(OCn1nnc2ccccc2c1=O)C1=COCCO1,11%
10,Cc1ccc(S(=O)(=O)NCCC(=O)OCC(=O)NCCc2ccccc2)cc1C,4.85%
11,N#C/C(=C\c1cn(CC(=O)N2CCCCC2)c2ccccc12)C(=O)NCc1ccc2c(c1)OCO2,1.35%
12,COc1ccc(CCNS(=O)(=O)c2ccc3c(c2)NC(=O)C(C)S3)cc1OC (centres unmarked),17.7%
13,Cc1nc(SC(C)C(=O)NC2CCCCC2C)c2c(C)c(C)sc2n1 (centres unmarked),11.1%
14,Cc1cccc(CSC2=NCCN2C(=O)C2CC2)c1,5.91%
15,Cc1cc(=O)oc2c(C)c(OCC(=O)NC3CC(C)(C)NC(C)(C)C3)ccc12,-2.11%
16,O=C(CSc1ccc(-c2ccccn2)nn1)N1CCCc2ccccc21,9.54%
17,Cc1cc(C)cc(NC(=O)N2CCCCCCC2)c1,10.4%
18,CCOC(=O)c1ccc(-c2c(-c3ccc4c(c3)OCO4)noc2C)cc1F,12.4%
19,CCc1nnc(NC(=O)c2ccc(Br)o2)s1,14.8%
20,CCOc1ccc(-c2nnn(CC(=O)N3CCCC3)n2)cc1OCC,13.6%
21,COc1ccc(N2CCOCC2)c(NC(=O)COc2cccc(C)c2C)c1,7.18%
22,COc1cccc2cc(/C(C)=N/NC(=O)c3ccco3)oc12,9.53%
23,COc1cc2cc(CCCOC(=O)CCCC(=O)O)oc(=O)c2cc1OC,10.6%
24,CC1=CC(=O)CC2C1(C)CCC(C)C2(C)CCC(C)CC(=O)O (centres unmarked),12.7%
25,CCN(CC)C(=O)COc1ccc2c(-c3ccccc3)cc(=O)oc2c1,12.9%
26,O=C(c1ccco1)N(Cc1cccc(Cl)c1)C1CCS(=O)(=O)C1 (centres unmarked),-29.3%
